According to PMC4336329 (PLoS ONE, 2015):
Screen size: about 310,000 compounds; about 14,000 (4.5%) showed an effect of 50% or more. Effects have a minus sign here. This is one part of the list.

Target: human ether-à-go-go-related gene (hERG) potassium channel (human, UniProt Q12809)
Assay: primary screen, population patch clamp on CHO cells stably expressing hERG
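Further: peak tail current of the secondary pulse compared with the same well before compound.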

Chain of human ether-à-go-go-related gene (hERG) potassium channel (Q12809 whole entry, looked up): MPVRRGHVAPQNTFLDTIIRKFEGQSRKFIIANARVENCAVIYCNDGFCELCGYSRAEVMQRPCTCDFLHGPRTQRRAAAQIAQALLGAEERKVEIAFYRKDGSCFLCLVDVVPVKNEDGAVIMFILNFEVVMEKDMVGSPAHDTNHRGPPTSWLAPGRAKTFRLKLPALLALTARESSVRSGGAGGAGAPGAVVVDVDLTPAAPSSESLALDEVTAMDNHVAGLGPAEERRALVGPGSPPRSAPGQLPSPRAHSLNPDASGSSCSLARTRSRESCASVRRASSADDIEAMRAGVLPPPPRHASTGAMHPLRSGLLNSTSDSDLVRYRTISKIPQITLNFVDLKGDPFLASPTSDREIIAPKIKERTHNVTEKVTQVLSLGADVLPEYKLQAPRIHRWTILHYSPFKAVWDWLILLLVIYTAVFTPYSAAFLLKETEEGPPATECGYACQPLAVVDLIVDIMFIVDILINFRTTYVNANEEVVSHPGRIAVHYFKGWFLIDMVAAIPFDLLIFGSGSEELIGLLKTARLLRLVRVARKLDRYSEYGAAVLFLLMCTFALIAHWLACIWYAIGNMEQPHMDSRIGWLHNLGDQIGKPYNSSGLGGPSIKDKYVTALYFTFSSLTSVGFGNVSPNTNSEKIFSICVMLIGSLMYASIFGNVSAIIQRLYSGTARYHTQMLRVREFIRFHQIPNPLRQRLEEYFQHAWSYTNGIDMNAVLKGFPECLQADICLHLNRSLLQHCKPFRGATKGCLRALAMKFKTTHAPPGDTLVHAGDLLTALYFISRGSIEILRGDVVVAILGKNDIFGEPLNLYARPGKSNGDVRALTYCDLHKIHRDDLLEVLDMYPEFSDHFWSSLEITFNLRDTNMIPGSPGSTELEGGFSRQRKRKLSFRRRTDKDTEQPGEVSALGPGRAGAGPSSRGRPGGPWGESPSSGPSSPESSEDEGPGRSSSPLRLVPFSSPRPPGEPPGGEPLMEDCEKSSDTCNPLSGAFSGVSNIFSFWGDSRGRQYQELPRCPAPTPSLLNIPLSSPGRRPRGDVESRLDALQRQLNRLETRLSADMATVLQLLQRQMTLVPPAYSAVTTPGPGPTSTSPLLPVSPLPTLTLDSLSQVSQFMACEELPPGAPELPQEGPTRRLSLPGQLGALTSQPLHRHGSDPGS

Structure (SMILES) | hERG current change (%, negative = inhibition) at 10uM
NC(=O)c1cc(C(=O)c2ccc(Cl)cc2)c[nH]1 | 17.6%
O=C(NCCc1nc2ccccc2[nH]1)/C(=C/c1ccc2c(c1)OCO2)NC(=O)c1ccccc1 | -71.1%
COc1ccc(C(=O)C2=NN(C(C)=O)CC2c2ccco2)cc1 (centres unmarked) | 2.27%
CCN(CC)S(=O)(=O)c1ccc2c(c1)nc(SCC(=O)NC1CC1)n2-c1ccccc1OC | -56.2%
C/C(=N/NC(=O)c1ccoc1C)c1ccc(NC(=O)c2ccncc2)cc1 | -0.357%
Cc1ccccc1NS(=O)(=O)c1cccc2nonc12 | 2.34%
CCCn1nc2cc(C(=O)NCc3ccccc3)ccc2c1OCC | -8.07%
CN1CCN(c2nc(-c3ccc(C(C)(C)C)cc3)nc3ccccc23)CC1.Cl | -2.05%
COc1ccc2nc(NC(=O)C3CSC4(C)CCC(=O)N34)sc2c1 (centres unmarked) | -23.1%
COc1ccc(CN(Cc2nc3ccccc3c(=O)[nH]2)C(=O)c2ccco2)cc1 | -3.68%
CC(=O)c1cc(NC(=O)c2ccc(Cl)cc2)c(=O)oc1/C=C/N(C)C | -13.5%
Cc1cccc(-n2cnc(C(=O)NNC(=S)Nc3ccc(Cl)cc3)c2)n1 | -1.74%
CSc1ccccc1C(=O)C1CCCN(C(=O)CCN2CCCO2)C1 (centres unmarked) | 7.34%
COc1ccc(NC(=O)Nc2nc(C)cc(C)n2)c(OC)c1 | -23%
C[C@@]12C(=O)Nc3cc(Cl)ccc3C(=O)N1[C@H]1c3cc(Br)ccc3OC[C@@H]1[C@@H]2c1ccccc1 | 14.3%
Cc1ccc(N2CC(C(=O)OCC(=O)c3ccc([N+](=O)[O-])cc3)CC2=O)cc1 (centres unmarked) | -26.8%
O=C(C(=O)N1CCCC1CO)N1CCCC1CO (centres unmarked) | 12.8%
COc1cc(/C=C/c2cccc[n+]2C)ccc1OCC(=O)Nc1cccc(Cl)c1.[I-] | -13.3%
O=[N+]([O-])c1ccc(COP(=O)([O-])OCc2ccc([N+](=O)[O-])cc2)cc1.[Na+] | 4.2%
CCOC(=O)C(NCCc1ccccc1F)(NC(=O)CC)C(F)(F)F (centres unmarked) | -0.945%
CCOC(=O)N1CCN(CCC(=O)Nc2ccc(OC)cc2OC)CC1 | 11.1%
Cc1ccccc1C(=O)NCCCNC(=O)c1ccco1 | 24.4%
O=C(NCC(c1cccs1)N1CCOCC1)c1cn(-c2ccccc2)nc1-c1ccc(Cl)cc1 (centres unmarked) | 6.82%
